This is one part of the list.
Tested on: PfAP2-HC AP2 domain (GST-tagged)
Assay: gcPBM binding intensity (ln(normalized median fluorescence intensity)); higher = stronger DNA binding
Outline: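 After 1 h on an Agilent 4 × 180k array of primer-extended double-stranded 36-bp intergenic genomic probes and negative controls, bound GST-tagged P. falciparum DNA-binding domains were detected with Alexa488 anti-GST antibody and scanned at 488 nm. The domains had been expressed in E. coli, and binding took place in 1× PBS with 1% milk, 0.2 mg/ml BSA, 0.5% salmon testes DNA and 0.03% Triton X-100. Binding intensity is the highest Masliner-normalised natural-log median intensity across replicate spots of either probe orientation.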

Row | Sequence | gcPBM binding intensity (ln)
1 | TGAATAAATATATATACACACATATCTGTATTTATT [CACACA_site4991] | 9.86
2 | TATATATATACCAACACACATACATATATATATATA [CACACA_site1795] | 9.93
3 | AAATTTGGCAGACACACACACACACGCACACGCACA [CACACA_site6423] | 11.5
4 | TATGAAATTAGAATTACACACAGGAAAATAAAATGC [CACACA_site6822] | 10
5 | AAAAAAAATCAAATGGGTACTTATTCTTAATAATAT [XGTACX_site3792] | 9.46
6 | TTTGCGTAGAAATGTGTGCACTGATATTTATAATAA [GTGCAC_site9526] | 9.84
7 | TGAACTCATAGGAAAACACACATATGGGTAATATAT [CACACA_site187] | 9.79
8 | ATTTTCCTTTTACCACGTACACATAAAAACGTTATA [XGTACX_site3595] | 9.75
9 | ATCATAAATATAGCAACACACGGATTACATAAAATA [CACACA_site2796] | 9.85
10 | TTAAAAAAATAATTAACACACACATGTATATCTATA [CACACA_site9026] | 9.92
11 | TTGTAATAAATAAAAGTGCAGATATGGTTCCACTAA [GTGCAC_site9942] | 9.53
12 | ATAAATATATTTAAATGTACATAATATATATATATA [XGTACX_site5137] | 9.65
13 | TATATATATTTAAAGGTGCAGATGCCAGTGTATATT | 9.73
14 | AATGAACTCACGAGCACACACACACCGATATATATA [CACACA_site4710] | 11
15 | ATATATACATACAAATTAATTACGAGGAATATATTA [XGTACX_negctrl_site417] | 9.69
16 | ACATATTCATATGGAAGTACGATAATGTAGTCATAT [XGTACX_site7080] | 9.72
17 | TATACATATATATACACACACACATATATATATATA [CACACA_site1299] | 10.1
18 | GGAACTTATTTTTATACACACATATGTGCATATTAT [CACACA_site629] | 10.1
19 | GTAAAAAAATTAAAAATTAACAAGGAATTAAGTATA [CACACA_negctrl_site1688] | 9.64
20 | ATAAGAAAATCAAAAAGTACTTTTTACAAAGATAAA [XGTACX_site824] | 9.6
21 | ATATACTATATATAATGTACATATATATTATTATGC [XGTACX_site2957] | 9.72
22 | TAGTTTTTTATATATTGTACAAATAATATATTATAT [XGTACX_site2564] | 9.66
23 | ATTTTATGATATATTTGTACTTAACATTTGGATATA [XGTACX_site5888] | 9.6

Row | Sequence | gcPBM binding intensity (ln)
24 | AGTGACACCAAAGGGGTGCAATGAAATTAAAAATAT | 9.6
25 | TTTATTCATTTCTAAAAATATTAAAATAGAATGAAT [CACACA_negctrl_site325] | 9.29
26 | AAACAAAAAATATATACACACTAAACATAAAAAAAA [CACACA_site4185] | 9.97
27 | TAAAAAAAAATAAATGGTACACAATTAAATGTTTAT [XGTACX_site5255] | 9.67
28 | AAAAAAATATATATATATATATATATATATTTATAT [XGTACX_negctrl_site86] | 9.35
29 | TCTTTTTTTAATAAAACATGCAATATTATATATGTA [TGCATGCA_site236] | 9.55
30 | TAAATTCTTTAAAACTTTAAAACAAAAAAAAAAAAA [CACACA_negctrl_site1078] | 9.11
31 | GTAATTATTAATAAAACATGCGTATAAAATTTTCTC [TGCATGCA_site50] | 9.65
32 | TTTTTAATCTCATATGTATAATATATTTTTATTAAA [XGTACX_negctrl_site236] | 9.26
33 | AATTTTAGATTTAGCACACATTTTTTTTTTTTTTTT [CACACA_site6105] | 9.69
34 | TTCAAAGGGAAATTAACACACACATATATATATATA [CACACA_site8777] | 9.89
35 | TTCAATGCTAATTTATGTACATATGTATATAAAATA [XGTACX_site8335] | 9.4
36 | CCCAAAAAAAATTTATGTACTTATTAAATATATATA [XGTACX_site6455] | 9.36
37 | TTTATATAAATTTAAGTGCAAAATGAACAAGTGAAA | 9.79
38 | AAAATATATATTTGTTGTACAATATTAATTATTAAA [XGTACX_site1612] | 9.54
39 | TGCAAAGGTGAAAGAACACACAAAAAAAAAAAAAAA [CACACA_site4024] | 9.47
40 | CACCATGTTAACAAAGCATGCATCTCTATAGTTTTA [TGCATGCA_site97] | 9.7
41 | AAAAAAAAAAAAAGAACATGCGACTTTAAGAACTGG [TGCATGCA_site792] | 9.56
42 | TATGAAAATAAAATATGTACATATTTTAAATGTTAT [XGTACX_site7352] | 9.69
43 | CAAATGTGTTCTTCAGGTACAGATACACATTTATGA [XGTACX_site2664] | 9.48
44 | TAAAAAATTATATATTGTACGAATGCATAAAAAAAA [XGTACX_site4606] | 9.67
45 | TAAATACATAGATGTACACACATTACAGATGTACAT [CACACA_site4692] | 9.82
46 | ATTTATAAAATTAATGCACACATCAGCATTTATAAA [CACACA_site1025] | 9.55

Row | Sequence | gcPBM binding intensity (ln)
47 | ATAAAGCACACCGACACACACATATTTATATTTATA [CACACA_site6620] | 10.8
48 | TTGTGTTATCCTTTTTTAGATCAACTATTTTTATTC [CACACA_negctrl_site145] | 9.77
49 | TATAAAATAAAAAATAAATATCTATATATATATATA [TGCATGCA_negctrl_site351] | 9.51
50 | ATAATTTGTAAAAGGAGTACAAAACCATACTTTTTT [XGTACX_site6076] | 9.55
51 | AAAGGAAAATTAAAAAGTACACATTTGAAAAAAAAA [XGTACX_site2724] | 9.75
52 | ATGTATTTAATAAGAACACACATATATTTAATTTAA [CACACA_site5606] | 9.76
53 | TTTTTTTTTTTAAGTTCACACATAAATTCGATTTAC [CACACA_site5057] | 9.56
54 | ACCGTTTTTGTGTAATGTACAAAATTTCTGACAGTG [XGTACX_site4999] | 9.63
55 | ATAAGAAATGTAACTTGTACATAAGGATATATATTT [XGTACX_site236] | 9.81
56 | TAATAATAAAAAAATAGTACATAAATAAAAATAATA [XGTACX_site4774] | 9.74
57 | CATTTATATAAATACACACACACAAAAAAAAAAAAA [CACACA_site5459] | 10.2
58 | TTTATACATTTATATTGTACTAATTCGATTTTATAT [XGTACX_site5424] | 9.93
59 | AATGATCATATATACACACACACAAAAAAAAAAAAA [CACACA_site4009] | 11.2
60 | GGGAGGATAGTTCACAGTACCCAGGAAATCTACGGA [XGTACX_site2553] | 9.36
61 | GGTTCATAATATGGTTGTACATAAATATATATATAT [XGTACX_site7583] | 9.86
62 | ATATATATGTATAATCGTACAGTTAACGTATTCTTA [XGTACX_site5649] | 9.8
63 | AAACAGATAAATAAAAGTACACATTAAAAGGTAGCA [XGTACX_site4150] | 10
64 | GGATTTTAATGAACACGTACATAAAATTAAATAAAT [XGTACX_site7023] | 9.54
65 | TAATTAATTTCTTTACGTACATAATTAATATATATA [XGTACX_site7372] | 9.44
66 | TACTATATCATTTATTGTACAATATTTCTTCAGAAA [XGTACX_site1008] | 9.66
67 | CTTTGCCTTAAAAAGGAACACACATGCTTTTTTTAG [CACACA_site8219] | 9.66
68 | TATAAAAGACTAAATATTATAGAAATATAAATATAA [TGCATGCA_negctrl_site237] | 9.37
69 | TAACAAGGTTTATATGCATGCAAACATAACCAAAAA [TGCATGCA_site824] | 9.54

Row | Sequence | gcPBM binding intensity (ln)
70 | AATGGGTAAACATACACACACACATCTATATTTATA [CACACA_site7025] | 10.8
71 | ACTAGACAAAATATAATGCACACTATTATTTTTATT [CACACA_site2726] | 9.79
72 | AATAATATACATATATATATTATATTGTAATTTTGT [TGCATGCA_negctrl_site1] | 9.64
73 | CATGAGGTATAAAAGGTGCAAATTAATGAGAACATT | 9.77
74 | TTATATCAAGGGAATGCATGCATATCGTTTTGTATT [TGCATGCA_site327] | 9.63
75 | TATTCTTATATATATACACACACAAAATATCTACAA [CACACA_site8144] | 9.95
76 | TTGCATTGATCAAACATACACACATGGTTAATAAAA [CACACA_site2084] | 9.68
77 | TATTTCTCACTGTATGGTACAGATATAAATTTTTAT [XGTACX_site8776] | 9.62
78 | TATATATATATATATGTGCGCATATATTTTTTTGTA [GTGCAC_site9983] | 10.1
79 | ACAAAATTTACAAAATGTACAAAATATACAAAATAT [XGTACX_site6465] | 9.75
80 | CACAAATAAATATTCACACATATATGTCTTATATAT [CACACA_site5323] | 9.97
81 | ATTACAATAAATTCGTGTACATGATACCGCCGCTAC [XGTACX_site8997] | 9.47
82 | ATCAAATTTTTGTTATGTACACAATCATTTAATAAA [XGTACX_site810] | 9.55
83 | TAATTATTATTAAATACACACACATACCTCCATGTT [CACACA_site9134] | 10.5
84 | AAAAAAAAAAAATAGGTGCGTGTTACTTTTGTATGC [GTGCAC_site9524] | 9.79
85 | AATTAACCGTGACACACACACATATAAATATAAATA [CACACA_site7790] | 10.6
86 | TGCCCTTTGGTTATAACACACATGCACACGTAAATA [CACACA_site7750] | 10
87 | GGGAATATATAAGATACACACACAAATTAAATATAA [CACACA_site8898] | 10.5
88 | TATATATATATATATACACACACACCCACCAAAGCG [CACACA_site7904] | 10.1
89 | ATGAAATATGCACAGTGTACTTTTATGAGGAACATA [XGTACX_site426] | 9.69

Source: the supplement of paper PMC11417369
